In paper PMC9911399, “Two distinct binding modes provide the RNA-binding protein RbFox with extraordinary sequence specificity”:
Where a chain is given by its changes, count along the chain named. The list shows a part of the results.

T1: RBFOX1 RRM RbFoxmut (Fox-RRM*) (Homo sapiens, UniProt Q9NWB1 109-208, R118D;E147R;N151S;E152T)
T1 sequence: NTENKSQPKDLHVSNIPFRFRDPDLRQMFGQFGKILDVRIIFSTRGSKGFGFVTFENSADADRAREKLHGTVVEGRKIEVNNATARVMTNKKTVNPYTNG

B1: GAAUAGC (DNA:RNA)
RNA: GGGAGACCGGAAUUCAGAUUGUCCGAAUAGCUUAAAUCCCGUCGUAGCCACCA
DNA 1: CAATCTGAATTCCGGTCTCCC
DNA 2: TGGTGGCTACGACGGGATT
B2: UUCACGA (DNA:RNA)
RNA: B1 RNA with G25U, A26U, A27C, U28A, A29C, C31A
DNA 1: CAATCTGAATTCCGGTCTCCC
DNA 2: TGGTGGCTACGACGGGATT
B3: AUUACCU (DNA:RNA)
RNA: GGGAGACCGGAAUUCAGAUUGUCCAUUACCUUUAAAUCCCGUCGUAGCCACCA
DNA 1: CAATCTGAATTCCGGTCTCCC
DNA 2: TGGTGGCTACGACGGGATT
B4: UAACUAU (DNA:RNA)
RNA: B1 RNA with G25U, U28C, A29U, G30A, C31U
DNA 1: CAATCTGAATTCCGGTCTCCC
DNA 2: TGGTGGCTACGACGGGATT
B5: UGGGGAC (DNA:RNA)
RNA: B1 RNA with G25U, A26G, A27G, U28G, A29G, G30A
DNA 1: CAATCTGAATTCCGGTCTCCC
DNA 2: TGGTGGCTACGACGGGATT
B6: CGAGAUU (DNA:RNA)
RNA: B1 RNA with G25C, A26G, U28G, G30U, C31U
DNA 1: CAATCTGAATTCCGGTCTCCC
DNA 2: TGGTGGCTACGACGGGATT
B7: AUGAAUA (DNA:RNA)
RNA: B3 RNA with U27G, C29A, C30U, U31A
DNA 1: CAATCTGAATTCCGGTCTCCC
DNA 2: TGGTGGCTACGACGGGATT
B8: ACAAUAG (DNA:RNA)
RNA: B3 RNA with U26C, U27A, C29U, C30A, U31G
DNA 1: CAATCTGAATTCCGGTCTCCC
DNA 2: TGGTGGCTACGACGGGATT
B9: GACAUUU (DNA:RNA)
RNA: B3 RNA with A25G, U26A, U27C, C29U, C30U
DNA 1: CAATCTGAATTCCGGTCTCCC
DNA 2: TGGTGGCTACGACGGGATT
B10: UAGUCUU (DNA:RNA)
RNA: B3 RNA with A25U, U26A, U27G, A28U, C30U
DNA 1: CAATCTGAATTCCGGTCTCCC
DNA 2: TGGTGGCTACGACGGGATT
B11: UGGAGAC (DNA:RNA)
RNA: B3 RNA with A25U, U26G, U27G, C29G, C30A, U31C
DNA 1: CAATCTGAATTCCGGTCTCCC
DNA 2: TGGTGGCTACGACGGGATT
B12: UAGUGCG (DNA:RNA)
RNA: B1 RNA with G25U, A27G, A29G, G30C, C31G
DNA 1: CAATCTGAATTCCGGTCTCCC
DNA 2: TGGTGGCTACGACGGGATT
B13: CAUUACC (DNA:RNA)
RNA: B1 RNA with G25C, A27U, G30C
DNA 1: CAATCTGAATTCCGGTCTCCC
DNA 2: TGGTGGCTACGACGGGATT
B14: CCGCCCC (DNA:RNA)
RNA: B3 RNA with A25C, U26C, U27G, A28C, U31C
DNA 1: CAATCTGAATTCCGGTCTCCC
DNA 2: TGGTGGCTACGACGGGATT
B15: CCGGCUC (DNA:RNA)
RNA: B3 RNA with A25C, U26C, U27G, A28G, C30U, U31C
DNA 1: CAATCTGAATTCCGGTCTCCC
DNA 2: TGGTGGCTACGACGGGATT
B16: GUUAAAU (DNA:RNA)
RNA: B3 RNA with A25G, C29A, C30A
DNA 1: CAATCTGAATTCCGGTCTCCC
DNA 2: TGGTGGCTACGACGGGATT
B17: GUACAAC (DNA:RNA)
RNA: B1 RNA with A26U, U28C, G30A
DNA 1: CAATCTGAATTCCGGTCTCCC
DNA 2: TGGTGGCTACGACGGGATT
B18: AUGCAUA (DNA:RNA)
RNA: B3 RNA with U27G, A28C, C29A, C30U, U31A
DNA 1: CAATCTGAATTCCGGTCTCCC
DNA 2: TGGTGGCTACGACGGGATT
B19: AUAACGU (DNA:RNA)
RNA: B3 RNA with U27A, C30G
DNA 1: CAATCTGAATTCCGGTCTCCC
DNA 2: TGGTGGCTACGACGGGATT
B20: CGACUGA (DNA:RNA)
RNA: B1 RNA with G25C, A26G, U28C, A29U, C31A
DNA 1: CAATCTGAATTCCGGTCTCCC
DNA 2: TGGTGGCTACGACGGGATT
B21: ACACGCU (DNA:RNA)
RNA: B3 RNA with U26C, U27A, A28C, C29G
DNA 1: CAATCTGAATTCCGGTCTCCC
DNA 2: TGGTGGCTACGACGGGATT
B22: GAAAGCU (DNA:RNA)
RNA: B3 RNA with A25G, U26A, U27A, C29G
DNA 1: CAATCTGAATTCCGGTCTCCC
DNA 2: TGGTGGCTACGACGGGATT
B23: GCGGUUA (DNA:RNA)
RNA: B1 RNA with A26C, A27G, U28G, A29U, G30U, C31A
DNA 1: CAATCTGAATTCCGGTCTCCC
DNA 2: TGGTGGCTACGACGGGATT
B24: UUAGUUC (DNA:RNA)
RNA: B1 RNA with G25U, A26U, U28G, A29U, G30U
DNA 1: CAATCTGAATTCCGGTCTCCC
DNA 2: TGGTGGCTACGACGGGATT
B25: UGUCCGC (DNA:RNA)
RNA: B3 RNA with A25U, U26G, A28C, C30G, U31C
DNA 1: CAATCTGAATTCCGGTCTCCC
DNA 2: TGGTGGCTACGACGGGATT
B26: CUCACCC (DNA:RNA)
RNA: B3 RNA with A25C, U27C, U31C
DNA 1: CAATCTGAATTCCGGTCTCCC
DNA 2: TGGTGGCTACGACGGGATT
B27: GCCGGGA (DNA:RNA)
RNA: B1 RNA with A26C, A27C, U28G, A29G, C31A
DNA 1: CAATCTGAATTCCGGTCTCCC
DNA 2: TGGTGGCTACGACGGGATT
B28: UGACUCA (DNA:RNA)
RNA: B3 RNA with A25U, U26G, U27A, A28C, C29U, U31A
DNA 1: CAATCTGAATTCCGGTCTCCC
DNA 2: TGGTGGCTACGACGGGATT
B29: UCUCUUG (DNA:RNA)
RNA: B3 RNA with A25U, U26C, A28C, C29U, C30U, U31G
DNA 1: CAATCTGAATTCCGGTCTCCC
DNA 2: TGGTGGCTACGACGGGATT
B30: AAUUCCU (DNA:RNA)
RNA: B3 RNA with U26A, A28U
DNA 1: CAATCTGAATTCCGGTCTCCC
DNA 2: TGGTGGCTACGACGGGATT
B31: AAAACCU (DNA:RNA)
RNA: B3 RNA with U26A, U27A
DNA 1: CAATCTGAATTCCGGTCTCCC
DNA 2: TGGTGGCTACGACGGGATT

What follows are binders tested against T1, RBFOX1 RRM RbFoxmut (Fox-RRM*) (assay: EMSA; HiTS-Eq, 1 nM pool, 10 min; buffer printed only for the single-RNA assays: 10 mM Tris pH 7.5, 150 mM NaCl, 3.4 mM EDTA, 0.001% NP-40, 30 C). Conditions: tags: His6 N-terminal (pET28a); label: 5' 32P.
Method in brief: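 Purified RbFox RRM, wild type or mutant, was incubated for 10 min in 50 µL with 1 nM of a 5′-radiolabelled RNA pool carrying 7 randomized nucleotides, whose flanks were annealed to DNA oligonucleotides, over a series of increasing protein concentrations. Unbound RNA was resolved on 8% native PAGE, cut out, reverse-transcribed, barcoded by PCR and sequenced on an Illumina HiSeq 2500. Relative association constants were derived from changes in read counts for each RNA species versus the control reaction and normalised to the cognate motif.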

First: B1
Second: B2
The binding signal of the first is higher: 0.118 KA relative to UGCAUGU for the first, 0.079 KA relative to UGCAUGU for the second.

Compared with B3, B4 is lower in binding signal: 0.133 KA relative to UGCAUGU for the first, 0.0483 KA relative to UGCAUGU for the second.

First: B5
Second: B6
The binding signal of the first is lower: 0.0636 KA relative to UGCAUGU for the first, 0.0702 KA relative to UGCAUGU for the second.

Compared with B7, B8 is lower in binding signal: 0.161 KA relative to UGCAUGU for the first, 0.0878 KA relative to UGCAUGU for the second.

Compared with B9, B10 is lower in binding signal: 0.086 KA relative to UGCAUGU for the first, 0.0742 KA relative to UGCAUGU for the second.

First: B11
Second: B12
The binding signal of the first is lower: 0.0876 KA relative to UGCAUGU for the first, 0.136 KA relative to UGCAUGU for the second.

First: B13
Second: B14
The binding signal of the first is higher: 0.103 KA relative to UGCAUGU for the first, 0.0683 KA relative to UGCAUGU for the second.

Compared with B15, B16 is higher in binding signal: 0.061 KA relative to UGCAUGU for the first, 0.0819 KA relative to UGCAUGU for the second.

First: B17
Second: B18
The binding signal of the first is lower: 0.0612 KA relative to UGCAUGU for the first, 0.161 KA relative to UGCAUGU for the second.

First: B19
Second: B20
The binding signal of the first is lower: 0.107 KA relative to UGCAUGU for the first, 0.144 KA relative to UGCAUGU for the second.

Compared with B21, B22 is lower in binding signal: 0.085 KA relative to UGCAUGU for the first, 0.0545 KA relative to UGCAUGU for the second.

First: B23
Second: B24
The binding signal of the first is higher: 0.131 KA relative to UGCAUGU for the first, 0.0952 KA relative to UGCAUGU for the second.

First: B25
Second: B26
The binding signal of the first is higher: 0.11 KA relative to UGCAUGU for the first, 0.0858 KA relative to UGCAUGU for the second.

First: B27
Second: B28
The binding signal of the first is lower: 0.117 KA relative to UGCAUGU for the first, 0.133 KA relative to UGCAUGU for the second.

First: B29
Second: B30
The binding signal of the first is higher: 0.103 KA relative to UGCAUGU for the first, 0.0468 KA relative to UGCAUGU for the second.

B31 was tested, and the binding signal was 0.0698 KA relative to UGCAUGU.
